B1: Tau([…]), unmodified (WT) (peptide)
chain: not shown
notes: microtubule-associated protein Tau, […], free N-terminal cysteine and C-terminal carboxylic acid; numbers count on: 2N4R Tau; peptide characterisation is in the Supporting Information; also called unmodified Tau([…]); source: synthetic: chemical protein synthesis (SPPS of three segments, DSL and NCL), HPLC purified; SEC before assembly
B2: Tau([…]) P301S (peptide)
chain: not shown
notes: microtubule-associated protein Tau, […], with the mutation P301S linked to inherited FTDP-17 and CBD; numbers count on: 2N4R Tau; source: synthetic: chemical protein synthesis (SPPS of three segments, DSL and NCL), HPLC purified
B3: Tau([…]) AcK311 (peptide)
chain: not shown
modifications: N-acetyllysine at 311
notes: microtubule-associated protein Tau, […]; numbers count on: 2N4R Tau; source: synthetic: chemical protein synthesis (SPPS of three segments, DSL and NCL), HPLC purified
B4: Tau([…]) AcK317 (peptide)
chain: not shown
modifications: N-acetyllysine at 317
notes: as for B3
B5: Tau([…]) AcK353 (peptide)
chain: not shown
modifications: N-acetyllysine at 353
notes: as for B3
B6: Tau([…]) AcK369 (peptide)
chain: not shown
modifications: N-acetyllysine at 369
notes: as for B3
B7: Tau([…]) pY310 (peptide)
chain: not shown
modifications: phosphotyrosine at 310
notes: as for B3
B8: Tau([…]) pS352 (peptide)
chain: not shown
modifications: phosphoserine at 352
notes: as for B3
B9: Tau([…]) pS356 (peptide)
chain: not shown
modifications: phosphoserine at 356
notes: as for B3

Tests used:
[1] = target: the molecule itself; assay: cryo-EM structure; filaments of Tau(291–391) WT assembled without cofactor: 5 mg/mL, 10 mM phosphate buffer pH 7.2, 100 mM MgCl2, 10 mM DTT, 200 rpm shaking, 37 °C, 24 h
2N4R Tau(2–441) = target: T1, 2N4R Tau(2–441) (human, UniProt P10636-8 2-441); assay: ELISA; Tau(291–391) proteoforms immobilised on a PVC plate, recombinant 2N4R Tau(2–441) in solution, detected with Tau-13 mAb (residues 15–25) and anti-mouse IgG HRP; Langmuir binding curves, apparent KD, three replicates; conditions: both partners purified
Chain of 2N4R Tau(2–441) (P10636 other isoform, or with tags, fused parts or gaps): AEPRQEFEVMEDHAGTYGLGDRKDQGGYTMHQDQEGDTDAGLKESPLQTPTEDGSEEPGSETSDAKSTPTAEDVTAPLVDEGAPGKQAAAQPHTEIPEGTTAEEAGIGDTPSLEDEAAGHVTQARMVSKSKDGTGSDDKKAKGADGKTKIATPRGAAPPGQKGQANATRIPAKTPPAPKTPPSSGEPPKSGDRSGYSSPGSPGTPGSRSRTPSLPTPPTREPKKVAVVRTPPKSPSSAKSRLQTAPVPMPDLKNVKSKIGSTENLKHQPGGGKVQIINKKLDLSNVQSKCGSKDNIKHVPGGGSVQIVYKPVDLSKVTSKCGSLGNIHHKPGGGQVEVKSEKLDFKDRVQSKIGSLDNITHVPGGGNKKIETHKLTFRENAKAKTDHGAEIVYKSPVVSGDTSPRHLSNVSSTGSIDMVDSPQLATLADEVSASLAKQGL
T1 construct: microtubule-associated protein Tau, 2N4R isoform, residues 2-441; numbers count on: 2N4R Tau; the Supporting Information may tell; also called recombinant 2N4R Tau; source: recombinant

Binder	binding result [1]	binding result (2N4R Tau(2–441))
B1	binds	binds
B2	–	binds
B3	–	binds
B4	–	binds
B5	–	binds
B6	–	binds
B7	–	binds
B8	–	binds
B9	–	binds

Reference: publication PMC11613296, “Post-Translational Modifications Control Phase Transitions of Tau” (ACS Central Science, 2024)
